PMC9911399, “Two distinct binding modes provide the RNA-binding protein RbFox with extraordinary sequence specificity”
Residue numbers refer to the chain shown, from its start. Some of the results follow.

T1: RBFOX1 RRM RbFoxmut (Fox-RRM*) (Homo sapiens, UniProt Q9NWB1 109-208, R118D;E147R;N151S;E152T)
T1 sequence: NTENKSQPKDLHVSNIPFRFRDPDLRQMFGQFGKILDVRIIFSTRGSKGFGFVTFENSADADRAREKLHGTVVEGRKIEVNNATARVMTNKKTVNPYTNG

B1: CUCUGAG (DNA:RNA)
RNA: GGGAGACCGGAAUUCAGAUUGUCCCUCUGAGUUAAAUCCCGUCGUAGCCACCA
DNA 1: CAATCTGAATTCCGGTCTCCC
DNA 2: TGGTGGCTACGACGGGATT
B2: CAUGAUG (DNA:RNA)
RNA: B1 RNA with U26A, C27U, U28G, G29A, A30U
DNA 1: CAATCTGAATTCCGGTCTCCC
DNA 2: TGGTGGCTACGACGGGATT
B3: AAACGGU (DNA:RNA)
RNA: B1 RNA with C25A, U26A, C27A, U28C, A30G, G31U
DNA 1: CAATCTGAATTCCGGTCTCCC
DNA 2: TGGTGGCTACGACGGGATT
B4: GACGGUA (DNA:RNA)
RNA: B1 RNA with C25G, U26A, U28G, A30U, G31A
DNA 1: CAATCTGAATTCCGGTCTCCC
DNA 2: TGGTGGCTACGACGGGATT
B5: CAGCUGG (DNA:RNA)
RNA: B1 RNA with U26A, C27G, U28C, G29U, A30G
DNA 1: CAATCTGAATTCCGGTCTCCC
DNA 2: TGGTGGCTACGACGGGATT
B6: UCGUCGU (DNA:RNA)
RNA: B1 RNA with C25U, U26C, C27G, G29C, A30G, G31U
DNA 1: CAATCTGAATTCCGGTCTCCC
DNA 2: TGGTGGCTACGACGGGATT
B7: CCAAUAC (DNA:RNA)
RNA: B1 RNA with U26C, C27A, U28A, G29U, G31C
DNA 1: CAATCTGAATTCCGGTCTCCC
DNA 2: TGGTGGCTACGACGGGATT
B8: AGGUGGG (DNA:RNA)
RNA: B1 RNA with C25A, U26G, C27G, A30G
DNA 1: CAATCTGAATTCCGGTCTCCC
DNA 2: TGGTGGCTACGACGGGATT
B9: GCUUUAG (DNA:RNA)
RNA: B1 RNA with C25G, U26C, C27U, G29U
DNA 1: CAATCTGAATTCCGGTCTCCC
DNA 2: TGGTGGCTACGACGGGATT
B10: CGCAUUG (DNA:RNA)
RNA: B1 RNA with U26G, U28A, G29U, A30U
DNA 1: CAATCTGAATTCCGGTCTCCC
DNA 2: TGGTGGCTACGACGGGATT
B11: CACAUCA (DNA:RNA)
RNA: B1 RNA with U26A, U28A, G29U, A30C, G31A
DNA 1: CAATCTGAATTCCGGTCTCCC
DNA 2: TGGTGGCTACGACGGGATT
B12: CAGAGUG (DNA:RNA)
RNA: B1 RNA with U26A, C27G, U28A, A30U
DNA 1: CAATCTGAATTCCGGTCTCCC
DNA 2: TGGTGGCTACGACGGGATT
B13: GGCUUUG (DNA:RNA)
RNA: B1 RNA with C25G, U26G, G29U, A30U
DNA 1: CAATCTGAATTCCGGTCTCCC
DNA 2: TGGTGGCTACGACGGGATT
B14: UCGAAAA (DNA:RNA)
RNA: B1 RNA with C25U, U26C, C27G, U28A, G29A, G31A
DNA 1: CAATCTGAATTCCGGTCTCCC
DNA 2: TGGTGGCTACGACGGGATT
B15: AAAGUGG (DNA:RNA)
RNA: B1 RNA with C25A, U26A, C27A, U28G, G29U, A30G
DNA 1: CAATCTGAATTCCGGTCTCCC
DNA 2: TGGTGGCTACGACGGGATT
B16: CGACGUA (DNA:RNA)
RNA: B1 RNA with U26G, C27A, U28C, A30U, G31A
DNA 1: CAATCTGAATTCCGGTCTCCC
DNA 2: TGGTGGCTACGACGGGATT
B17: GCGAGCU (DNA:RNA)
RNA: B1 RNA with C25G, U26C, C27G, U28A, A30C, G31U
DNA 1: CAATCTGAATTCCGGTCTCCC
DNA 2: TGGTGGCTACGACGGGATT
B18: ACCGUAG (DNA:RNA)
RNA: B1 RNA with C25A, U26C, U28G, G29U
DNA 1: CAATCTGAATTCCGGTCTCCC
DNA 2: TGGTGGCTACGACGGGATT
B19: CAUGUUU (DNA:RNA)
RNA: B1 RNA with U26A, C27U, U28G, G29U, A30U, G31U
DNA 1: CAATCTGAATTCCGGTCTCCC
DNA 2: TGGTGGCTACGACGGGATT
B20: UAACGUG (DNA:RNA)
RNA: B1 RNA with C25U, U26A, C27A, U28C, A30U
DNA 1: CAATCTGAATTCCGGTCTCCC
DNA 2: TGGTGGCTACGACGGGATT
B21: GCAAAGA (DNA:RNA)
RNA: GGGAGACCGGAAUUCAGAUUGUCCGCAAAGAUUAAAUCCCGUCGUAGCCACCA
DNA 1: CAATCTGAATTCCGGTCTCCC
DNA 2: TGGTGGCTACGACGGGATT
B22: AAUAGUG (DNA:RNA)
RNA: B1 RNA with C25A, U26A, C27U, U28A, A30U
DNA 1: CAATCTGAATTCCGGTCTCCC
DNA 2: TGGTGGCTACGACGGGATT
B23: UUUAAAC (DNA:RNA)
RNA: B1 RNA with C25U, C27U, U28A, G29A, G31C
DNA 1: CAATCTGAATTCCGGTCTCCC
DNA 2: TGGTGGCTACGACGGGATT
B24: UACGCCU (DNA:RNA)
RNA: B1 RNA with C25U, U26A, U28G, G29C, A30C, G31U
DNA 1: CAATCTGAATTCCGGTCTCCC
DNA 2: TGGTGGCTACGACGGGATT
B25: UUCGCCC (DNA:RNA)
RNA: B1 RNA with C25U, U28G, G29C, A30C, G31C
DNA 1: CAATCTGAATTCCGGTCTCCC
DNA 2: TGGTGGCTACGACGGGATT
B26: ACCAACA (DNA:RNA)
RNA: B21 RNA with G25A, A27C, G30C
DNA 1: CAATCTGAATTCCGGTCTCCC
DNA 2: TGGTGGCTACGACGGGATT
B27: GUUCACC (DNA:RNA)
RNA: B21 RNA with C26U, A27U, A28C, G30C, A31C
DNA 1: CAATCTGAATTCCGGTCTCCC
DNA 2: TGGTGGCTACGACGGGATT
B28: CCGACAU (DNA:RNA)
RNA: B1 RNA with U26C, C27G, U28A, G29C, G31U
DNA 1: CAATCTGAATTCCGGTCTCCC
DNA 2: TGGTGGCTACGACGGGATT
B29: GAUCGCC (DNA:RNA)
RNA: B1 RNA with C25G, U26A, C27U, U28C, A30C, G31C
DNA 1: CAATCTGAATTCCGGTCTCCC
DNA 2: TGGTGGCTACGACGGGATT
B30: GGAACUA (DNA:RNA)
RNA: B21 RNA with C26G, A29C, G30U
DNA 1: CAATCTGAATTCCGGTCTCCC
DNA 2: TGGTGGCTACGACGGGATT
B31: CCGGCGC (DNA:RNA)
RNA: B21 RNA with G25C, A27G, A28G, A29C, A31C
DNA 1: CAATCTGAATTCCGGTCTCCC
DNA 2: TGGTGGCTACGACGGGATT

Molecular target: T1, RBFOX1 RRM RbFoxmut (Fox-RRM*)
Experiment: EMSA; HiTS-Eq, 1 nM pool, 10 min; buffer printed only for the single-RNA assays: 10 mM Tris pH 7.5, 150 mM NaCl, 3.4 mM EDTA, 0.001% NP-40, 30 C
Conditions: tags: His6 N-terminal (pET28a); label: 5' 32P
Outline: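 Purified RbFox RRM, wild type or mutant, was incubated for 10 min in 50 µL with 1 nM of a 5′-radiolabelled RNA pool carrying 7 randomized nucleotides, whose flanks were annealed to DNA oligonucleotides, over a series of increasing protein concentrations. Unbound RNA was resolved on 8% native PAGE, cut out, reverse-transcribed, barcoded by PCR and sequenced on an Illumina HiSeq 2500. Relative association constants were derived from changes in read counts for each RNA species versus the control reaction and normalised to the cognate motif.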

Binder | binding signal
B1 | 0.0972 KA relative to UGCAUGU
B2 | 0.114 KA relative to UGCAUGU
B3 | 0.0743 KA relative to UGCAUGU
B4 | 0.129 KA relative to UGCAUGU
B5 | 0.105 KA relative to UGCAUGU
B6 | 0.109 KA relative to UGCAUGU
B7 | 0.0931 KA relative to UGCAUGU
B8 | 0.105 KA relative to UGCAUGU
B9 | 0.123 KA relative to UGCAUGU
B10 | 0.179 KA relative to UGCAUGU
B11 | 0.117 KA relative to UGCAUGU
B12 | 0.156 KA relative to UGCAUGU
B13 | 0.204 KA relative to UGCAUGU
B14 | 0.091 KA relative to UGCAUGU
B15 | 0.089 KA relative to UGCAUGU
B16 | 0.125 KA relative to UGCAUGU

Binder | binding signal
B17 | 0.081 KA relative to UGCAUGU
B18 | 0.117 KA relative to UGCAUGU
B19 | 0.139 KA relative to UGCAUGU
B20 | 0.104 KA relative to UGCAUGU
B21 | 0.0604 KA relative to UGCAUGU
B22 | 0.132 KA relative to UGCAUGU
B23 | 0.0686 KA relative to UGCAUGU
B24 | 0.11 KA relative to UGCAUGU
B25 | 0.0579 KA relative to UGCAUGU
B26 | 0.101 KA relative to UGCAUGU
B27 | 0.0751 KA relative to UGCAUGU
B28 | 0.0623 KA relative to UGCAUGU
B29 | 0.11 KA relative to UGCAUGU
B30 | 0.061 KA relative to UGCAUGU
B31 | 0.0815 KA relative to UGCAUGU
